According to US10253086B2, “CD20 therapies, CD22 therapies, and combination therapies with a CD19 chimeric antigen receptor (CAR)-expressing cell” (Novartis AG, priority 2015, dated 2019):

B1: NVS 2: human anti-human CD123 clone expressing CAR123-2 (antibody, V domains shown)
VH: [about 100 residues not given here]DMNILATVPFDIWGQGTMVTVSS
VL: DIQMTQSPSSLSASVGDRVTITCRASQSISSYLNWYQQKPGKAPKLLIYAASSLQSGVPSRFSGSGSGTDFTLTVNSLQPEDFATYYCQQGDSVPLTFGGGTRLEIK
B2: hCD22-30: human CD22 CAR (protein)
scFv: [about 100 residues not given here]EPASSSWYGYYYYMDVWGKGTLVTVSSGGGGSGGGGSGGGGSGGGGSDIQMTQSPSSLSASVGDRVTITCRASQSINTYLNWYQQKPGKPPKLLIYAASNLQSGVPSRFSGSGSGTHFTLTISSLQPDDFATYYCQQSYSSLLTFGGGTKLEIK

Assays:
cynomolgus CD123 = assay: Cross-reactivity of anti-CD123 clones with cynomolgus CD123; format: binding
Excerpt: Their activity was compared against mouse clones 1172 and 1176, comprising the VH and VL domains in a light-to-heavy orientation with a CD8 hinge domain, CD8 transmembrane domain, and 41BB-costimulatory domain. […] 1172 is not.

[1] = molecular target: recombinant human CD22-Fc (Homo sapiens, UniProt P20273); assay: Surface expression of CD22 CAR in primary human T-cells (Protein-L, rhCD22-Fc); format: cell-based; details: day 10, flow cytometry
Description: Primary human T-cells were activated with anti-CD3/antiCD28 stimulatory beads on day 0, followed by lentiviral transduction of specified CAR constructs on day 1. Cells were expanded in vitro until day, 10 at which point they were analyzed by flow cytometry for surface expression of CAR. Two different approaches were utilized to determine surface expression of CAR: Protein-L-biotin followed by streptavidin-PE, and recombinant human CD22-Fc followed by anti-Fc-alexafluor 488. […] CD22 CAR m971 served as a positive control for binding both Protein-L and hrCD22-Fc, and Isotype CAR with no specificity (anti-gH) served as a positive control for Protein-L. T cells expressing no CAR were used as a negative control.

[2] = tested on: Raji, SEM, K562-hCD22, Daudi, and Nalm6; assay: Primary T-cell tumor target killing assay; format: cell-based, human; details: CD22 expressing luciferase target cell lines
Excerpt: Primary T-cells activated and transduced as described above were mixed with target cell lines stably expressing luciferase at the ratios indicated (FIG. 20A-20F). […] Untransduced T-cells (UTD) lacked the ability to kill target cell lines.

| Molecule | cross-reactivity against cynomolgus CD123 (cynomolgus CD123) | surface expression of CAR [1] | target cell killing [2] |
| --- | --- | --- | --- |
| B1 | cross-reactive against cynomolgus CD123 |  |  |
| B2 |  | positive surface expression | dose-dependent target cell killing |
